Reference: the supplement of paper PMC8285479
Counter-ions that a name gives are not always drawn. ± gives the standard deviation of the averaged measurements. The full ranking holds about 1,900 compounds; the median of “normalised cell viability (NPI; 0 = phenylarsine oxide control, 1 = DMSO control)” is about 1, and the lowest 2% start at about 0.039. The list shows a part of the results.

Test system: NCI-H1944
Assay: normalised cell viability (NPI; 0 = phenylarsine oxide control, 1 = DMSO control) (fraction of DMSO control); NCI-H1944 is a non-small cell lung cancer line; higher = more viable cells (less compound toxicity)
Conditions: 6 days
[1] = glucocorticoid arm: hydrocortisone 2.75 uM co-treatment, compound 1 µM
[2] = glucocorticoid arm: hydrocortisone 2.75 uM co-treatment, compound 5 µM
[3] = glucocorticoid arm: hydrocortisone 2.75 uM pre-treated 2 days and continued, compound 1 µM
[4] = glucocorticoid arm: hydrocortisone 2.75 uM pre-treated 2 days and continued, compound 5 µM
[5] = glucocorticoid arm: vehicle, compound 1 µM
[6] = glucocorticoid arm: vehicle, compound 5 µM
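Further: CTB read-out in 384-well plates, mean of triplicate wells, normalised per plate against 1 µM phenylarsine oxide and 0.1% DMSO, compounds added 24 h after seeding.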

Row | SMILES | normalised cell viability [1] | normalised cell viability [2] | normalised cell viability [3] | normalised cell viability [4] | normalised cell viability [5] | normalised cell viability [6]
1 | CCC1(C)CC(=O)NC1=O (stereo not drawn) [Ethosuximide] | 1 ± 0.012 | 1 ± 0.013 | 1.01 ± 0.013 | 1.01 ± 0.021 | 0.9903 ± 0.0087 | 0.989 ± 0.0061
2 | C[C@H](Nc1ncnc2nc[nH]c12)c1cc2cccc(Cl)c2c(=O)n1-c1ccccc1 | 0.828 ± 0.041 | 0.6173 ± 0.0059 | 0.87 ± 0.029 | 0.662 ± 0.072 | 0.938 ± 0.027 | 0.809 ± 0.017
3 | CC(C)[C@H](NC(=O)OCc1ccccc1)C(=O)N[C@H](C=O)Cc1ccccc1 | 0.989 ± 0.011 | 0.987 ± 0.041 | 0.997 ± 0.0052 | 1.03 ± 0.085 | 1 ± 0.0087 | 1 ± 0.013
4 | OC[C@H]1NC[C@@H](O)[C@@H]1O [1,4-Dideoxy-1,4-imino-D-arabinitol] | 0.9993 ± 0.0011 | 0.9807 ± 0.0015 | 0.997 ± 0.014 | 0.976 ± 0.027 | 1.002 ± 0.007 | 0.992 ± 0.012
5 | O=S(=O)(c1cccc2cnccc12)N1CCCNCC1 [Fasudil (HA-1077) HCl] | 0.99 ± 0.018 | 0.981 ± 0.027 | 1.02 ± 0.011 | 1.02 ± 0.02 | 1.001 ± 0.0085 | 1.01 ± 0.018
6 | COc1cc2nc(N3CCCN(C)CC3)nc(NC3CCN(Cc4ccccc4)CC3)c2cc1OC | – | – | – | 1.03 | – | –
7 | CC(C)c1cnn2c(NCc3ccccc3)cc(NCCCCCCN)nc12 | 1.01 ± 0.015 | 1.03 ± 0.01 | 1.01 | 1.02 ± 0.011 | 1.01 ± 0.016 | 0.9977 ± 0.0025
8 | NC1CONC1=O (racemic) [DL-Cycloserine] | 0.993 ± 0.0046 | 0.979 ± 0.013 | 0.854 ± 0.22 | 0.9865 ± 0.0035 | 0.982 ± 0.013 | 0.9793 ± 0.0032
9 | CSc1nc(N)c2ncn([C@@H]3O[C@H](COP(=O)(O)OP(=O)(O)O)[C@@H](O)[C@H]3O)c2n1 [2-Methylthioadenosine diphosphate trisodium] | 1.007 ± 0.0058 | 1.02 ± 0.026 | 1.01 ± 0.012 | 1.06 ± 0.082 | 0.9917 ± 0.0072 | 1 ± 0.017
10 | N=c1nc(N2CCCCC2)cc(N)n1O [Minoxidil] | 1.02 ± 0.011 | 1.013 ± 0.0058 | 1.01 ± 0.024 | 0.993 ± 0.021 | 0.999 ± 0.0017 | 1.02 ± 0.015
11 | CCCCS(=N)(=O)CCC(N)C(=O)O [L-Buthionine-sulfoximine] | 1.01 | 1.02 ± 0.02 | 1 ± 0.017 | 1.01 ± 0.038 | 0.9963 ± 0.0055 | 1.02 ± 0.011
12 | COc1cccc(OC)c1OCCNCC1CSc2ccccc2O1 (stereo not drawn) [Benoxathian hydrochloride] | 0.9973 ± 0.0023 | 0.942 ± 0.013 | 1.007 ± 0.0058 | 1.005 ± 0.0071 | 0.9933 ± 0.0065 | 0.999 ± 0.01
13 | Cc1ccc(C(=O)c2cc(/C=C/C(=O)NO)n(C)c2)cc1 | 1 ± 0.022 | 1.02 ± 0.02 | 1 ± 0.021 | 1.02 ± 0.017 | 0.9928 ± 0.0048 | 0.995 ± 0.022
14 | CN(C[C@@H]1COCCO1)S(=O)(=O)Nc1ccc2ccc3ncc(-c4cnn(C)c4)cc3c(=O)c2c1 | 0.971 ± 0.025 | 0.743 ± 0.019 | 0.996 ± 0.0027 | 0.852 ± 0.0091 | 0.9847 ± 0.0055 | 0.849 ± 0.0076
15 | COc1cc(CNC(=O)CCCCCCC(C)C)ccc1O [Dihydrocapsaicin] | 1.007 ± 0.0058 | 1.02 ± 0.026 | 1.01 ± 0.013 | 1.04 ± 0.082 | 0.9943 ± 0.0067 | 1.006 ± 0.0075
16 | CC/C(=C(\c1ccccc1)c1ccc(OCCN(C)C)cc1)c1ccccc1 [Tamoxifen Citrate] | 0.9403 ± 0.0084 | 0.897 ± 0.017 | 0.9853 ± 0.0075 | 0.964 ± 0.05 | 0.9947 ± 0.0035 | 0.9973 ± 0.0025
17 | CC(C)(C)NCC(O)c1cc(O)cc(O)c1 (stereo not drawn) [Terbutaline hemisulfate] | 0.9973 ± 0.0046 | 1.02 ± 0.022 | 1.01 ± 0.024 | 0.988 ± 0.014 | 0.9923 ± 0.0038 | 0.9953 ± 0.0064

Row | SMILES | normalised cell viability [1] | normalised cell viability [2] | normalised cell viability [3] | normalised cell viability [4] | normalised cell viability [5] | normalised cell viability [6]
18 | O=C(O)CCCCC1CCSS1 (racemic) [(±)-alpha-Lipoic Acid] | 1 ± 0.015 | 1.01 ± 0.027 | 1.02 ± 0.03 | 0.984 ± 0.015 | 1.003 ± 0.0058 | 1.01 ± 0.011
19 | CCOC(=O)[N-]c1c[n+](N2CCOCC2)no1 [Molsidomine] | 0.9947 ± 0.005 | 0.983 ± 0.012 | 0.998 ± 0.0035 | 1 ± 0.076 | 0.989 ± 0.0046 | 0.9937 ± 0.006
20 | CC[N+](CC)(CC)CCOc1cccc(OCC[N+](CC)(CC)CC)c1OCC[N+](CC)(CC)CC [Gallamine triethiodide] | 1.017 ± 0.0058 | 1.01 | 1.02 ± 0.011 | 1.023 ± 0.0058 | 1.007 ± 0.0058 | 1.013 ± 0.0058
21 | CC[N+](CC)(CC)CCOc1cccc(OCC[N+](CC)(CC)CC)c1OCC[N+](CC)(CC)CC [Gallamine Triethiodide] | 1.01 ± 0.021 | 1.027 ± 0.0058 | 1.02 ± 0.01 | 1.043 ± 0.0058 | 0.9957 ± 0.0035 | 1.003 ± 0.0058
22 | COc1cc2ncnc(Nc3ccc(F)c(Cl)c3)c2cc1OCCCN1CCOCC1 [Gefitinib(Iressa); Gefitinib] | 0.9707 ± 0.0076 | 0.906 ± 0.013 | 0.98 ± 0.013 | 0.912 ± 0.011 | 0.9413 ± 0.0031 | 0.867 ± 0.014
23 | COc1cc2ncnc(Nc3ccc(F)c(Cl)c3)c2cc1OCCCN1CCOCC1 [Gefitinib (Iressa)] | 0.853 ± 0.023 | 0.776 ± 0.03 | 0.876 ± 0.035 | 0.8387 ± 0.0061 | 0.889 ± 0.024 | 0.785 ± 0.045
24 | CN1CCN(c2nc(C3=C(c4c[nH]c5ccccc45)C(=O)NC3=O)c3ccccc3n2)CC1 [Sotrastaurin (AEB071)] | 1.027 ± 0.0058 | 1.11 ± 0.023 | 1.04 | 1.1 ± 0.01 | 1.007 ± 0.0058 | 1.027 ± 0.0058
25 | CN1CCC[C@@H]1CCO[C@](C)(c1ccccc1)c1ccc(Cl)cc1 [Clemastine Fumarate] | 0.962 ± 0.014 | 0.932 ± 0.025 | 0.968 ± 0.022 | 0.952 ± 0.012 | 0.9773 ± 0.0097 | 0.975 ± 0.01
26 | CN1CCC[C@@H]1CCO[C@](C)(c1ccccc1)c1ccc(Cl)cc1 [Clemastine fumarate] | 1.01 | 0.919 ± 0.011 | 1.01 ± 0.01 | 1 ± 0.05 | 1.001 ± 0.0081 | 0.98 ± 0.03
27 | O=C(c1ccc(OCCCc2c[nH]cn2)cc1)C1CC1 [Ciproxifan] | 1.05 ± 0.017 | 1.077 ± 0.0058 | 1.023 ± 0.0058 | 1.03 ± 0.02 | 1.027 ± 0.0058 | 1.01 ± 0.01
28 | CN(CC[C@@H](Oc1ccc(C(F)(F)F)cc1)c1ccccc1)CC(=O)[O-].[Li+] | 0.992 ± 0.0046 | 0.989 ± 0.011 | 0.99 ± 0.014 | 0.998 ± 0.018 | 0.979 ± 0.016 | 0.9777 ± 0.0035
29 | COC(=O)[C@]12CCC(C)(C)C[C@H]1[C@H]1C(=O)C=C3[C@@]4(C)C=C(C#N)C(=O)C(C)(C)[C@@H]4CC[C@@]3(C)[C@]1(C)CC2 [Bardoxolone Methyl] | 0.00114 ± 0.00058 | 1.08 ± 0.01 | 0.00366 ± 0.0014 | 1.1 ± 0.015 | 0.00138 ± 0.00077 | 0.858 ± 0.022
30 | O=C(O)c1cccnc1C(=O)O [Quinolinic acid] | 0.9833 ± 0.0093 | 0.946 ± 0.017 | 0.877 ± 0.2 | 0.994 ± 0.017 | 0.9823 ± 0.004 | 0.984 ± 0.0027
31 | Nc1nc2[nH]cc(CCc3ccc(C(=O)N[C@@H](CCC(=O)O)C(=O)O)cc3)c2c(=O)[nH]1 [Pemetrexed; Pemetrexed Disodium] | 0.931 ± 0.018 | 1.07 ± 0.01 | 0.934 ± 0.006 | 1.04 ± 0.017 | 0.898 ± 0.013 | 1 ± 0.012
32 | CCN1CCN(Cc2ccc(Nc3ncc(F)c(-c4cc(F)c5nc(C)n(C(C)C)c5c4)n3)nc2)CC1 | 0.493 ± 0.041 | 0.312 ± 0.06 | 0.528 ± 0.03 | 0.599 ± 0.14 | 0.252 ± 0.028 | 0.000109 ± 0.00093
33 | COCCc1ccc(OCC(O)CNC(C)C)cc1 (stereo not drawn) [Metoprolol Tartrate] | 0.992 ± 0.018 | 0.916 ± 0.016 | 0.9933 ± 0.007 | 0.9383 ± 0.0075 | 0.977 ± 0.013 | 1.007 ± 0.0058
